# Where “and” joins values, the source holds several entries; their conditions need not be identical. Identical values can stand only once. The shares of active, inactive and inconclusive entries below differ from those in the screen. Potencies beside an inconclusive call are fits to weak or partial responses and may not hold up. The source holds several records for some structures; these can differ, active in one and inactive in another. Calls of active or inactive are those of the source. The call rests on the fitted dose curve; in most records, active means well fitted curve in the direction sought with a large enough effect; inconclusive means small, poorly fitted or top-dose-only effect, or another doubt; inactive means no such curve, though single readings can be large; an effect the other way counts as inactive or inconclusive. Bridge positions count the residues as written; N and C are the ends. Square brackets hold non-standard residues; d marks the D form. Peptide text beside a SMILES is read from it. * marks the point of attachment. ξ: configuration not given here. Octanoyl(6-Me) = CCC(C)CCCCC(=O)*; ξThr(3R) = C[C@@H](O)C(N)C(=O)O; dDab = NCC[C@@H](N)C(=O)O; Dab = NCC[C@H](N)C(=O)O
# Assays:
# [1] = Viability qHTS for spleen associated tyrosine kinase inhibitor (SYKi) naive MV4-11 cells (AID 1963823); conditions: MV4-11 AML viability, CellTiter-Glo luminescence, 72 h; viability (% of control): at 45 µM (top of the series); further: nearly all actives have a fitted effect of over 40% in size
# How it was run: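 Cells: MV4-11, SYK inhibitor naive, 500 per well. Treatment: library compounds, 72 hr, 37 C, 5% CO2. Read-out: CellTiter-Glo luminescence after 10 min RT.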
# [2] = Quantitative highthroughput screen to assess conditional lethalithy of NOMO1 cells grown in Human Plasma-Like Medium with dialyzed fetal bovine serum (HPLM+ds) (AID 1963878); conditions: NOMO1 AML cells in HPLM+ds, CellTiter-Glo viability, 48 h; viability: at 45.8 µM (top of the series); further: nearly all actives have a fitted effect of over 35% in size;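 on Viability: 100% = DMSO wells and 0% = empty wells on each plate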
# How it was run: (§1)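 Each medium arm—HPLM with 10% dialyzed FBS, or RPMI1640 with 5 mM glucose and 10% untreated or dialyzed FBS—was screened against an 11-point, 3-fold compound titration for 48 h at 37 °C, with CellTiter-Glo luminescence as endpoint.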
# [3] = Quantitative highthroughput screen to assess conditional lethalithy of P12 Ichikawa cells grown in RPMI1640 with dialyzed fetal bovine serum (RPMI+ds) (AID 1963880); conditions: Potency: P12-Ichikawa viability; further: nearly all actives have a fitted effect of over 35% in size;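 on Viability: 100% = DMSO wells and 0% = empty wells on each plate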
# How it was run: as §1
# [4] = Quantitative highthroughput screen to assess conditional lethalithy of SEM cells grown in Human Plasma-Like Medium with dialyzed fetal bovine serum (HPLM+ds) (AID 1963882); further: nearly all actives have a fitted effect of over 35% in size
# How it was run: as §1
# [5] = Cellular viability qHTS for adrenocortical cancer (ACC) cell line NCI-H295R (AID 1963990); conditions: CellTiter-Glo ATP luminescence, 48 h; activity change, negative = viability loss: at 46.1 µM (top of the series); further: nearly all actives have a fitted effect of over 60% in size;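 on activity change, negative = viability loss: 0% = DMSO only wells and -100% = full killing with cytotoxic reference compound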
# How it was run: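 CellTiter-Glo ATP luminescence, read 48 h after compound addition, measured viability of NCI-H295R adrenocortical cells grown serum-free with ITS. Final concentrations spanned up to 46 uM. Data normalized to DMSO and doxorubicin, fitted for IC50 and maximal response.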
# [6] = Quantitative highthroughput screen to assess conditional lethalithy of P12 Ichikawa cells grown in Human Plasma-Like Medium with dialyzed fetal bovine serum (HPLM+ds) (AID 1963879); conditions: Potency: viability; further: nearly all actives have a fitted effect of over 35% in size
# How it was run: as §1
# [7] = Quantitative highthroughput screen to assess conditional lethalithy of SEM cells grown in RPMI1640 with unreated serum (RPMI+s) (AID 1963883); conditions: SEM B-ALL cells, CellTiter-Glo viability, 48 h; viability: at 45.8 µM (top of the series); further: nearly all actives have a fitted effect of over 35% in size;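 on Viability: 100% = DMSO wells and 0% = empty wells without cells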
# How it was run: as §1
# [8] = Quantitative highthroughput screen to assess conditional lethalithy of SEM cells grown in RPMI1640 with dialyzed fetal bovine serum (RPMI+ds) (AID 1963884); conditions: SEM B-ALL cells, RPMI+dialyzed FBS, CellTiter-Glo viability, 48 h; viability: at 45.8 µM (top of the series); further: nearly all actives have a fitted effect of over 35% in size;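 on Viability: 100% = DMSO control wells and 0% = empty wells without cells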
# How it was run: as §1
# [9] = Cellular viability qHTS for adrenocortical cancer (ACC) cell line SW-13 (AID 1963989); conditions: SW-13 ACC cells viability, CellTiter-Glo, 48 h; activity (max response): stronger effect = lower value; further: nearly all actives have a fitted effect of over 65% in size;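 on activity (max response): cells grown in serum-free medium with ITS supplement; on the % scale 0 is the no-effect control and ±100 the full control effect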
# How it was run: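 Viability was read as CellTiter-Glo luminescence after 48 h compound treatment (up to 46 uM final) of SW-13 cells grown serum-free; titration curves were fit with a four-parameter logistic model to give IC50 and efficacy.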
# [10] = Quantitative highthroughput screen to assess conditional lethalithy of P12 Ichikawa cells grown in RPMI1640 with untreated serum (RPMI+s) (AID 1963881); conditions: Potency: viability; further: nearly all actives have a fitted effect of over 35% in size;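 on Viability: 100% = DMSO wells and 0% = empty wells without cells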
# How it was run: as §1
# Potency means the concentration at half of the fitted maximal effect; tags describe the fitted curve by direction and shape.
smiles,measurement,setting,value
Cc1ccc(-c2ncn(-c3ccc(Nc4nccc(-c5cccc(N6CCOCC6)c5)n4)cc3)n2)cn1,Potency,[1],active: 2.35 µM
same,Potency,[2],active: 296 nM
same,Potency,[3],active: 372 nM
same,Potency,[4],active: 235 nM
same,Potency,[5],"inconclusive: 50.1 nM [cytotoxic, full curve, poor fit]"
O=C(/C=C\n1cnc(-c2cc(C(F)(F)F)cc(C(F)(F)F)c2)n1)NNc1cnccn1,Potency,[1],active: 0.833 µM
same,Potency,[6],active: 588 nM
same,Potency,[3],active: 588 nM
same,Potency,[4],active: 741 nM
same,Potency,[7],active: 588 nM
same,Potency,[8],active: 741 nM
same,Potency,[9],active: 12600 nM
CCC(C)CCCCC(=O)N[C@@H](CCN)C(=O)NC(C(=O)N[C@H](CCN)C(=O)N[C@@H]1CCNC(=O)C([C@@H](C)O)NC(=O)[C@@H](CCN)NC(=O)[C@@H](CCN)NC(=O)[C@@H](CC(C)C)NC(=O)[C@H](Cc2ccccc2)NC(=O)[C@H](CCN)NC1=O)[C@@H](C)O (stereo partly drawn) ({Octanoyl(6-Me)}-[Dab][ξThr(3R)][dDab][dDab][Dab]F[dL][dDab][dDab][ξThr(3R)]; lactam 4-C),Potency,[1],inactive
same,Potency,[6],inactive
same,Potency,[10],inactive
same,Potency,[4],inactive
COc1ccc(COc2cc3oc(=O)c4cc(C(C)O)ccc4c3cc2OC)cc1 (stereo unspecified),Potency,[1],"inconclusive: 7.42 µM [cytotoxic, partial curve, poor fit]"
same,Potency,[2],inactive
same,Potency,[7],"inconclusive: 2.3 nM [rising, full curve, poor fit]"
same,Potency,[8],"inconclusive: 29600 nM [cytotoxic, single point]"
same,Potency,[9],"inconclusive: 25100 nM [cytotoxic, single point]"
CCS(=O)(=O)c1cccc(-c2cc(C(=O)NC3CCN(C)CC3)c(C)c3[nH]c4ncc(C)cc4c23)c1,Potency,[1],active: 40.4 nM and active: 59 nM
same,Potency,[6],active: 264 nM
same,Potency,[3],"inconclusive: 264 nM [cytotoxic, full curve]"
same,Potency,[7],active: 296 nM
same,Potency,[8],"inconclusive: 332 nM [cytotoxic, full curve]"
COc1cccc(OC)c1-c1cc(C(=O)NC2(C(=O)O)C3CC4CC(C3)CC2C4)nn1-c1ccnc2cc(Cl)ccc12 (stereo unspecified),Potency,[1],active: 9.34 µM
same,Potency,[2],inactive
same,Potency,[3],inactive
same,Potency,[7],inactive
same,Potency,[8],inactive
NCC(=O)Nc1ccc(-n2nc(C(F)(F)F)cc2-c2ccc3c(ccc4ccccc43)c2)cc1,Potency,[1],active: 5.8 µM and active: 5.9 µM
same,Potency,[2],"inconclusive: 18700 nM [cytotoxic, partial curve, poor fit]"
same,Potency,[10],"inconclusive: 1.2 nM [rising, full curve, poor fit]"
same,Potency,[7],inactive
same,Potency,[8],"inconclusive: 7430 nM [cytotoxic, full curve]"
same,Potency,[9],"inconclusive: 11200 nM [cytotoxic, partial curve]"
same,Potency,[5],"inconclusive: 28200 nM [cytotoxic, single point]"
O=c1cc(-c2ccc(O)c(O)c2)oc2cc(O)cc(O)c12,Potency,[1],"inconclusive: 2.63 µM [cytotoxic, full curve]"
same,Potency,[6],inactive
same,Potency,[3],inactive
same,Potency,[7],inactive
same,Potency,[8],inactive
same,Potency,[9],"inconclusive: 22400 nM [cytotoxic, partial curve]"
CCCCOc1ccc(CC(=O)NO)cc1,Potency,[1],inactive and active: 14.8 µM
same,Potency,[6],"inconclusive: 33200 nM [cytotoxic, partial curve, poor fit]"
same,Potency,[3],"inconclusive: 26400 nM [cytotoxic, single point]"
same,Potency,[10],"inconclusive: 33200 nM [cytotoxic, single point]"
same,Potency,[4],"inconclusive: 20900 nM [cytotoxic, partial curve]"
same,Potency,[7],"inconclusive: 37200 nM [cytotoxic, single point]"
same,Potency,[8],"inconclusive: 29600 nM [cytotoxic, single point]"
same,Potency,[5],"inconclusive: 35500 nM [cytotoxic, single point]"
N#CC1(c2ccc(NC(=O)c3cccnc3NCc3ccncc3)cc2)CCCC1,Potency,[1],active: 2.31 µM
same,Potency,[6],"inconclusive: 11800 nM [cytotoxic, partial curve, poor fit]"
CC(C)OC(=O)C1=CN(C(=O)c2ccc(F)c(F)c2)CC(C)(C)c2c1[nH]c1ccccc21,Potency,[1],active: 8.33 µM
same,Potency,[2],inactive
same,Potency,[3],inactive
same,Potency,[4],inactive
same,Potency,[8],inactive
Cc1cc(Nc2ncnc3ccc(-c4ccc(CNCCS(C)(=O)=O)o4)cc23)ccc1Oc1ccn2ncnc2c1,Potency,[1],"inconclusive: 8.2 µM [cytotoxic, partial curve] and active: 11.8 µM"
same,Potency,[2],active: 209 nM
same,Potency,[10],active: 1180 nM
same,Potency,[7],active: 93.5 nM
same,Potency,[9],"inconclusive: 35500 nM [cytotoxic, single point]"
same,Potency,[5],inactive
COC1=C2C[C@H](C)C[C@H](OC)[C@H](O)[C@@H](C)/C=C(/C)[C@H](OC(N)=O)[C@@H](OC)/C=C\C=C(\C)C(=O)NC(=CC1=O)C2=O,Potency,[1],"inconclusive: 0.0417 µM [cytotoxic, full curve]"
same,activity (max response),[9],inactive: -3.63%
CCN(CC)CCn1c(=O)c(Cc2ccc(OC)cc2)nc2ccccc21,Potency,[1],"inconclusive: 20.9 µM [cytotoxic, partial curve, poor fit]"
same,Potency,[3],inactive
same,Potency,[7],inactive
same,Potency,[8],inactive
CC(C)(N)c1ccc(-c2nc3ccccc3nc2-c2ccccc2)cc1,Potency,[1],active: 9.2 µM
same,Potency,[3],active: 74.3 nM
same,Potency,[10],active: 93.5 nM
same,Potency,[8],active: 33.2 nM
same,Potency,[5],"inconclusive: 10000 nM [cytotoxic, single point]"
COc1ccc(-c2ccc3c(N4CCOCC4)nc(N4C[C@@H](C)O[C@@H](C)C4)nc3n2)cc1CO,Potency,[1],"inconclusive: 0.742 µM [cytotoxic, full curve]"
same,Potency,[6],"inconclusive: 935 nM [cytotoxic, full curve]"
same,Potency,[9],"inconclusive: 3550 nM [cytotoxic, full curve]"
O=C(NC(Cc1cc(=O)[nH]c2ccccc12)C(=O)O)c1ccc(Cl)cc1 (stereo unspecified),Potency,[1],inactive
same,Potency,[7],inactive
same,Potency,[8],inactive
same,Potency,[5],inactive
O=c1cc(N2CCOCC2)oc2c(-c3ccccc3)cccc12,Potency,[1],"inconclusive: 25.1 µM [cytotoxic, partial curve, poor fit]"
same,Potency,[4],inconclusive: 1 nM
same,Potency,[7],inactive
same,Potency,[8],"inconclusive: 1.2 nM [rising, full curve, poor fit]"
same,Potency,[9],"inconclusive: 35500 nM [cytotoxic, partial curve, poor fit]"
C[C@@H](c1ncncc1F)[C@](O)(Cn1cncn1)c1ccc(F)cc1F,Potency,[1],inactive
same,Potency,[10],inactive
same,Potency,[7],"inconclusive: 1870 nM [cytotoxic, partial curve, poor fit]"
same,Potency,[8],"inconclusive: 1870 nM [cytotoxic, partial curve, poor fit]"
same,activity (max response),[9],inactive: -12.4%
CN(C)CC(=O)N1CCC(c2ccc(NC(=O)c3ncc(C#N)[nH]3)c(C3=CCCCC3)c2)CC1,Potency,[1],active: 73.1 nM and active: 74.2 nM
same,Potency,[10],inactive
same,Potency,[4],"inconclusive: 1320 nM [cytotoxic, full curve]"
same,Potency,[7],"inconclusive: 1180 nM [cytotoxic, full curve]"
same,Potency,[8],"inconclusive: 1050 nM [cytotoxic, full curve]"
same,Potency,[9],"inconclusive: 28200 nM [cytotoxic, single point]"
same,Potency,[5],"inconclusive: 31600 nM [cytotoxic, single point]"
CC1(C)OC(=O)NC1=O,Potency,[1],inactive
same,activity (max response),[9],inactive: 15.1%
NC(=O)c1cnccn1,Potency,[1],inactive
same,Potency,[7],inactive
O=C(O)C1=CC(O)C(O)[C@H](O)C1 (stereo partly specified),Potency,[1],inactive
same,Potency,[7],inactive
O=C(Nc1cccc(Cl)c1)Nc1ncc(CCNc2ncnc3ccsc23)s1,Potency,[1],active: 0.0206 µM
same,Potency,[3],"inconclusive: 235 nM [cytotoxic, full curve]"
same,Potency,[10],active: 418 nM
same,Potency,[9],active: 28200 nM
same,Potency,[5],active: 3550 nM
